Results: publication PMC9911399, “Two distinct binding modes provide the RNA-binding protein RbFox with extraordinary sequence specificity”
Where a chain is given by its changes, count along the chain named. The list shows a part of the results.

T1: RBFOX1 RRM RbFoxmut (Fox-RRM*) (Homo sapiens, UniProt Q9NWB1 109-208, R118D;E147R;N151S;E152T)
T1 sequence: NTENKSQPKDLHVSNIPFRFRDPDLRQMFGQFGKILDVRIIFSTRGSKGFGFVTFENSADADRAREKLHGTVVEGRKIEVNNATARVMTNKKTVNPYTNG

B1: GCUAUUA (DNA:RNA)
RNA: GGGAGACCGGAAUUCAGAUUGUCCGCUAUUAUUAAAUCCCGUCGUAGCCACCA
DNA 1: CAATCTGAATTCCGGTCTCCC
DNA 2: TGGTGGCTACGACGGGATT
B2: CCGGUCA (DNA:RNA)
RNA: B1 RNA with G25C, U27G, A28G, U30C
DNA 1: CAATCTGAATTCCGGTCTCCC
DNA 2: TGGTGGCTACGACGGGATT
B3: CCUGCAG (DNA:RNA)
RNA: B1 RNA with G25C, A28G, U29C, U30A, A31G
DNA 1: CAATCTGAATTCCGGTCTCCC
DNA 2: TGGTGGCTACGACGGGATT
B4: UCGUUCG (DNA:RNA)
RNA: B1 RNA with G25U, U27G, A28U, U30C, A31G
DNA 1: CAATCTGAATTCCGGTCTCCC
DNA 2: TGGTGGCTACGACGGGATT
B5: CAAAGGG (DNA:RNA)
RNA: B1 RNA with G25C, C26A, U27A, U29G, U30G, A31G
DNA 1: CAATCTGAATTCCGGTCTCCC
DNA 2: TGGTGGCTACGACGGGATT
B6: GACGGCG (DNA:RNA)
RNA: B1 RNA with C26A, U27C, A28G, U29G, U30C, A31G
DNA 1: CAATCTGAATTCCGGTCTCCC
DNA 2: TGGTGGCTACGACGGGATT
B7: CUAAUGG (DNA:RNA)
RNA: B1 RNA with G25C, C26U, U27A, U30G, A31G
DNA 1: CAATCTGAATTCCGGTCTCCC
DNA 2: TGGTGGCTACGACGGGATT
B8: UCCACGG (DNA:RNA)
RNA: B1 RNA with G25U, U27C, U29C, U30G, A31G
DNA 1: CAATCTGAATTCCGGTCTCCC
DNA 2: TGGTGGCTACGACGGGATT
B9: UGCAUGG (DNA:RNA)
RNA: B1 RNA with G25U, C26G, U27C, U30G, A31G
DNA 1: CAATCTGAATTCCGGTCTCCC
DNA 2: TGGTGGCTACGACGGGATT
B10: AGUACGA (DNA:RNA)
RNA: B1 RNA with G25A, C26G, U29C, U30G
DNA 1: CAATCTGAATTCCGGTCTCCC
DNA 2: TGGTGGCTACGACGGGATT
B11: UAUCGUG (DNA:RNA)
RNA: B1 RNA with G25U, C26A, A28C, U29G, A31G
DNA 1: CAATCTGAATTCCGGTCTCCC
DNA 2: TGGTGGCTACGACGGGATT
B12: UUAUAGG (DNA:RNA)
RNA: GGGAGACCGGAAUUCAGAUUGUCCUUAUAGGUUAAAUCCCGUCGUAGCCACCA
DNA 1: CAATCTGAATTCCGGTCTCCC
DNA 2: TGGTGGCTACGACGGGATT
B13: CACAGGA (DNA:RNA)
RNA: B1 RNA with G25C, C26A, U27C, U29G, U30G
DNA 1: CAATCTGAATTCCGGTCTCCC
DNA 2: TGGTGGCTACGACGGGATT
B14: CUGACGU (DNA:RNA)
RNA: B12 RNA with U25C, A27G, U28A, A29C, G31U
DNA 1: CAATCTGAATTCCGGTCTCCC
DNA 2: TGGTGGCTACGACGGGATT
B15: UCAUUAG (DNA:RNA)
RNA: B12 RNA with U26C, A29U, G30A
DNA 1: CAATCTGAATTCCGGTCTCCC
DNA 2: TGGTGGCTACGACGGGATT
B16: AGUAGAG (DNA:RNA)
RNA: B1 RNA with G25A, C26G, U29G, U30A, A31G
DNA 1: CAATCTGAATTCCGGTCTCCC
DNA 2: TGGTGGCTACGACGGGATT
B17: UUACUCC (DNA:RNA)
RNA: B12 RNA with U28C, A29U, G30C, G31C
DNA 1: CAATCTGAATTCCGGTCTCCC
DNA 2: TGGTGGCTACGACGGGATT
B18: UGCAGGU (DNA:RNA)
RNA: B12 RNA with U26G, A27C, U28A, A29G, G31U
DNA 1: CAATCTGAATTCCGGTCTCCC
DNA 2: TGGTGGCTACGACGGGATT
B19: UUUGUUG (DNA:RNA)
RNA: B1 RNA with G25U, C26U, A28G, A31G
DNA 1: CAATCTGAATTCCGGTCTCCC
DNA 2: TGGTGGCTACGACGGGATT
B20: GGAUGGG (DNA:RNA)
RNA: B12 RNA with U25G, U26G, A29G
DNA 1: CAATCTGAATTCCGGTCTCCC
DNA 2: TGGTGGCTACGACGGGATT
B21: GAUUAAU (DNA:RNA)
RNA: B1 RNA with C26A, A28U, U29A, U30A, A31U
DNA 1: CAATCTGAATTCCGGTCTCCC
DNA 2: TGGTGGCTACGACGGGATT
B22: AUCGUGG (DNA:RNA)
RNA: B12 RNA with U25A, A27C, U28G, A29U
DNA 1: CAATCTGAATTCCGGTCTCCC
DNA 2: TGGTGGCTACGACGGGATT
B23: GAAAAUG (DNA:RNA)
RNA: B1 RNA with C26A, U27A, U29A, A31G
DNA 1: CAATCTGAATTCCGGTCTCCC
DNA 2: TGGTGGCTACGACGGGATT
B24: CGCGGAU (DNA:RNA)
RNA: GGGAGACCGGAAUUCAGAUUGUCCCGCGGAUUUAAAUCCCGUCGUAGCCACCA
DNA 1: CAATCTGAATTCCGGTCTCCC
DNA 2: TGGTGGCTACGACGGGATT
B25: GGGCAUG (DNA:RNA)
RNA: B1 RNA with C26G, U27G, A28C, U29A, A31G
DNA 1: CAATCTGAATTCCGGTCTCCC
DNA 2: TGGTGGCTACGACGGGATT
B26: GGCUGUA (DNA:RNA)
RNA: B24 RNA with C25G, G28U, A30U, U31A
DNA 1: CAATCTGAATTCCGGTCTCCC
DNA 2: TGGTGGCTACGACGGGATT
B27: GCCCGGA (DNA:RNA)
RNA: B1 RNA with U27C, A28C, U29G, U30G
DNA 1: CAATCTGAATTCCGGTCTCCC
DNA 2: TGGTGGCTACGACGGGATT
B28: UGAGGUC (DNA:RNA)
RNA: B24 RNA with C25U, C27A, A30U, U31C
DNA 1: CAATCTGAATTCCGGTCTCCC
DNA 2: TGGTGGCTACGACGGGATT
B29: GUAGCCU (DNA:RNA)
RNA: B24 RNA with C25G, G26U, C27A, G29C, A30C
DNA 1: CAATCTGAATTCCGGTCTCCC
DNA 2: TGGTGGCTACGACGGGATT
B30: GUACGGU (DNA:RNA)
RNA: B12 RNA with U25G, U28C, A29G, G31U
DNA 1: CAATCTGAATTCCGGTCTCCC
DNA 2: TGGTGGCTACGACGGGATT
B31: AAAGUUA (DNA:RNA)
RNA: B1 RNA with G25A, C26A, U27A, A28G
DNA 1: CAATCTGAATTCCGGTCTCCC
DNA 2: TGGTGGCTACGACGGGATT

Each binder was assayed against T1, RBFOX1 RRM RbFoxmut (Fox-RRM*) (assay: EMSA; HiTS-Eq, 1 nM pool, 10 min; buffer printed only for the single-RNA assays: 10 mM Tris pH 7.5, 150 mM NaCl, 3.4 mM EDTA, 0.001% NP-40, 30 C). Details: tags: His6 N-terminal (pET28a); label: 5' 32P.
Method in brief: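 Purified wild-type or mutant RbFox RRM at increasing concentrations was equilibrated with 1 nM of 5′-radiolabelled RNA carrying 7 randomized nucleotides for 10 min in 50 µL. Unbound RNA was separated by 8% native PAGE and sequenced. Relative association constants came from read-count changes of each RNA species compared with the control reaction, normalised to the cognate motif.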

Point of comparison: B1, binding signal 0.113 KA relative to UGCAUGU. Against it:
- B2 — lower, 0.0703 KA relative to UGCAUGU
- B3 — lower, 0.105 KA relative to UGCAUGU
- B4 — higher, 0.218 KA relative to UGCAUGU
- B5 — lower, 0.0408 KA relative to UGCAUGU
- B6 — lower, 0.106 KA relative to UGCAUGU
- B7 — lower, 0.0875 KA relative to UGCAUGU
- B8 — lower, 0.0669 KA relative to UGCAUGU
- B9 — higher, 0.935 KA relative to UGCAUGU
- B10 — lower, 0.049 KA relative to UGCAUGU
- B11 — higher, 0.121 KA relative to UGCAUGU
- B12 — lower, 0.0933 KA relative to UGCAUGU
- B13 — lower, 0.0812 KA relative to UGCAUGU
- B14 — lower, 0.0725 KA relative to UGCAUGU
- B15 — higher, 0.155 KA relative to UGCAUGU
- B16 — higher, 0.127 KA relative to UGCAUGU
- B17 — lower, 0.0741 KA relative to UGCAUGU
- B18 — higher, 0.126 KA relative to UGCAUGU
- B19 — higher, 0.19 KA relative to UGCAUGU
- B20 — lower, 0.085 KA relative to UGCAUGU
- B21 — lower, 0.0998 KA relative to UGCAUGU
- B22 — higher, 0.124 KA relative to UGCAUGU
- B23 — lower, 0.1 KA relative to UGCAUGU
- B24 — lower, 0.0894 KA relative to UGCAUGU
- B25 — higher, 1.23 KA relative to UGCAUGU
- B26 — higher, 0.184 KA relative to UGCAUGU
- B27 — lower, 0.062 KA relative to UGCAUGU
- B28 — lower, 0.109 KA relative to UGCAUGU
- B29 — lower, 0.0936 KA relative to UGCAUGU
- B30 — higher, 0.132 KA relative to UGCAUGU
- B31 — higher, 0.157 KA relative to UGCAUGU
